{
  "sequences": {"note": "Chains of the proteins cited; added tags and fusions are not shown. Lines headed by an entry give the natural chain unless they say otherwise; changes in a name come on top. A line that says so, or that is headed by a name, gives the form on record, which may keep a tag or linker. Residues count along the entry.", "UniProt P60322": "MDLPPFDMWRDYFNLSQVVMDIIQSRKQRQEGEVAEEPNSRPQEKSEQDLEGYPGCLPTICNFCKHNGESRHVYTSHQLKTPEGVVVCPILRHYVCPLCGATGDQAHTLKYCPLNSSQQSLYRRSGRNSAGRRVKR", "Flag-tagged NANOS2 with the first 5 amino acids deleted": "residues 6-136 of P60322", "Flag-tagged NANOS2-ΔN10": "residues 11-136 of P60322", "Flag-tagged NANOS2 deletion mutant lacking residues 6–10 (P60322, form named)": "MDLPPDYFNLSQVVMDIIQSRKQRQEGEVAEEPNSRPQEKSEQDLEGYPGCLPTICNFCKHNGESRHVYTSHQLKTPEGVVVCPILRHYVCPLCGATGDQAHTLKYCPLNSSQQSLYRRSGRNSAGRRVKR", "UniProt Q8BH15": "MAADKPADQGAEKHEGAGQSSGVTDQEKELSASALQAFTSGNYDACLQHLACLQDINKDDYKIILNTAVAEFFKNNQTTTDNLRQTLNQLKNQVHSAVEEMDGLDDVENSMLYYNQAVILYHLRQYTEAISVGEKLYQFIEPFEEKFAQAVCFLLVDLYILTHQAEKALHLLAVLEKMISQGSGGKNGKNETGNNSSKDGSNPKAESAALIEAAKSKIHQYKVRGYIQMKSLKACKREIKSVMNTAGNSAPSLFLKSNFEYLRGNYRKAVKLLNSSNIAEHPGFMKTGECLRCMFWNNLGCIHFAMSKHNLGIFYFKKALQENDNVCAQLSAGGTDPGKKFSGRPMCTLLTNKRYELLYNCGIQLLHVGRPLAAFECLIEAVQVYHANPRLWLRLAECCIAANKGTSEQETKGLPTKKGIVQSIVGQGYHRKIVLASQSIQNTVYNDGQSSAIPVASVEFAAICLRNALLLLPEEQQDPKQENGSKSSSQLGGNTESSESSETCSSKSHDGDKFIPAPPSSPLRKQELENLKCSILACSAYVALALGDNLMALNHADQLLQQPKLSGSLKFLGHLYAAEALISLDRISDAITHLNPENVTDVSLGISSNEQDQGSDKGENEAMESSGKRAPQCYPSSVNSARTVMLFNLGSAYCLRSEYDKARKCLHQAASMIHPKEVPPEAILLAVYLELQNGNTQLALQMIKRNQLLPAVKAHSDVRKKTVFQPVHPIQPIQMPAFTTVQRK", "UniProt Q8K0V4": "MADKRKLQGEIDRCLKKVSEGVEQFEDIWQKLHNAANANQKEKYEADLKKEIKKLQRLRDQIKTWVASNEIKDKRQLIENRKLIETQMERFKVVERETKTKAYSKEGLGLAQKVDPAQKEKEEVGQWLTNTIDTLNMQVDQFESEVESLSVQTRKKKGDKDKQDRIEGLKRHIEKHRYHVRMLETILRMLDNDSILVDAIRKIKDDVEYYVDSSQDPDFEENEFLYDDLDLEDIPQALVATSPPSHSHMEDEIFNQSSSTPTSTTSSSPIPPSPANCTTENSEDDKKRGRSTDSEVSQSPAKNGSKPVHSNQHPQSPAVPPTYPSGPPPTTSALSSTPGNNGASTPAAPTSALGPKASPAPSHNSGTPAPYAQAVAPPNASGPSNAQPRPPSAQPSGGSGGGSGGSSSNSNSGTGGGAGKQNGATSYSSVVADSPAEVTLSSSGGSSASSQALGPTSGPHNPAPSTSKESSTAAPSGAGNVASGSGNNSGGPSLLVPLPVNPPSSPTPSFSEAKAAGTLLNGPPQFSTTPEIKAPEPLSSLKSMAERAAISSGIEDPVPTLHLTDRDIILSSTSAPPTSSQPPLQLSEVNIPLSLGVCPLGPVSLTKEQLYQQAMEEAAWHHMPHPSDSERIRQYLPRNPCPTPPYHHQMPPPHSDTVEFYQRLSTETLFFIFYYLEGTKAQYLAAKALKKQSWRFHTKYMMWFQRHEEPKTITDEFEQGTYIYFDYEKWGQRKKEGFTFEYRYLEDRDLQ", "UniProt Q8C5L3": "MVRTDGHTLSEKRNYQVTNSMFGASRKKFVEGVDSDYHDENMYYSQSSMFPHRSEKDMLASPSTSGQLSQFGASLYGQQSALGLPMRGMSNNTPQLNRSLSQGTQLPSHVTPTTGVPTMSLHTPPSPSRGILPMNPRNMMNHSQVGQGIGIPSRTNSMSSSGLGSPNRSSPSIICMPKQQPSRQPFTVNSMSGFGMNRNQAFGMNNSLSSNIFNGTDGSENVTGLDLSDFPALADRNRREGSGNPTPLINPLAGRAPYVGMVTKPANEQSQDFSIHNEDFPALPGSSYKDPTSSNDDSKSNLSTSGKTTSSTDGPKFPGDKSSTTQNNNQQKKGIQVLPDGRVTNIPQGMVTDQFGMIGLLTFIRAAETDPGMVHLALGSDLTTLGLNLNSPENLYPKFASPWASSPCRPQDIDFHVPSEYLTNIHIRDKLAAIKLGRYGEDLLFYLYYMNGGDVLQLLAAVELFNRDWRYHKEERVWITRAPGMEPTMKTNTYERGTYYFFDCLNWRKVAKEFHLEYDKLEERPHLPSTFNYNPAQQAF", "UniProt Q8K3P5": "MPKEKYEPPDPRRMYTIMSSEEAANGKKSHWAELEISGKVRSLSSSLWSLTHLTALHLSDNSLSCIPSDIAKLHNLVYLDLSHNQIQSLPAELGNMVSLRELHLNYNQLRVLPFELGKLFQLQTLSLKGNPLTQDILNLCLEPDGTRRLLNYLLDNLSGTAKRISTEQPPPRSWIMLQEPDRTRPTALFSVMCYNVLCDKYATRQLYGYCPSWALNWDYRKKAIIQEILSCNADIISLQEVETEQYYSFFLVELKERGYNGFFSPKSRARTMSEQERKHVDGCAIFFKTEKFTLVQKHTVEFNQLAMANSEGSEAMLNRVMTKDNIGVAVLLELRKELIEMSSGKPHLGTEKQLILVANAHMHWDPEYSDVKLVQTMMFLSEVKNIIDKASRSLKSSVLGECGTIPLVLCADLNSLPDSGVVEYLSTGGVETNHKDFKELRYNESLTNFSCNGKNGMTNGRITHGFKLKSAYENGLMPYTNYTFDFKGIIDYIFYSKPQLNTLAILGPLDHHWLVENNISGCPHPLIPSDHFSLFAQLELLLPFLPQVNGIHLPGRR", "UniProt A5YKK6": "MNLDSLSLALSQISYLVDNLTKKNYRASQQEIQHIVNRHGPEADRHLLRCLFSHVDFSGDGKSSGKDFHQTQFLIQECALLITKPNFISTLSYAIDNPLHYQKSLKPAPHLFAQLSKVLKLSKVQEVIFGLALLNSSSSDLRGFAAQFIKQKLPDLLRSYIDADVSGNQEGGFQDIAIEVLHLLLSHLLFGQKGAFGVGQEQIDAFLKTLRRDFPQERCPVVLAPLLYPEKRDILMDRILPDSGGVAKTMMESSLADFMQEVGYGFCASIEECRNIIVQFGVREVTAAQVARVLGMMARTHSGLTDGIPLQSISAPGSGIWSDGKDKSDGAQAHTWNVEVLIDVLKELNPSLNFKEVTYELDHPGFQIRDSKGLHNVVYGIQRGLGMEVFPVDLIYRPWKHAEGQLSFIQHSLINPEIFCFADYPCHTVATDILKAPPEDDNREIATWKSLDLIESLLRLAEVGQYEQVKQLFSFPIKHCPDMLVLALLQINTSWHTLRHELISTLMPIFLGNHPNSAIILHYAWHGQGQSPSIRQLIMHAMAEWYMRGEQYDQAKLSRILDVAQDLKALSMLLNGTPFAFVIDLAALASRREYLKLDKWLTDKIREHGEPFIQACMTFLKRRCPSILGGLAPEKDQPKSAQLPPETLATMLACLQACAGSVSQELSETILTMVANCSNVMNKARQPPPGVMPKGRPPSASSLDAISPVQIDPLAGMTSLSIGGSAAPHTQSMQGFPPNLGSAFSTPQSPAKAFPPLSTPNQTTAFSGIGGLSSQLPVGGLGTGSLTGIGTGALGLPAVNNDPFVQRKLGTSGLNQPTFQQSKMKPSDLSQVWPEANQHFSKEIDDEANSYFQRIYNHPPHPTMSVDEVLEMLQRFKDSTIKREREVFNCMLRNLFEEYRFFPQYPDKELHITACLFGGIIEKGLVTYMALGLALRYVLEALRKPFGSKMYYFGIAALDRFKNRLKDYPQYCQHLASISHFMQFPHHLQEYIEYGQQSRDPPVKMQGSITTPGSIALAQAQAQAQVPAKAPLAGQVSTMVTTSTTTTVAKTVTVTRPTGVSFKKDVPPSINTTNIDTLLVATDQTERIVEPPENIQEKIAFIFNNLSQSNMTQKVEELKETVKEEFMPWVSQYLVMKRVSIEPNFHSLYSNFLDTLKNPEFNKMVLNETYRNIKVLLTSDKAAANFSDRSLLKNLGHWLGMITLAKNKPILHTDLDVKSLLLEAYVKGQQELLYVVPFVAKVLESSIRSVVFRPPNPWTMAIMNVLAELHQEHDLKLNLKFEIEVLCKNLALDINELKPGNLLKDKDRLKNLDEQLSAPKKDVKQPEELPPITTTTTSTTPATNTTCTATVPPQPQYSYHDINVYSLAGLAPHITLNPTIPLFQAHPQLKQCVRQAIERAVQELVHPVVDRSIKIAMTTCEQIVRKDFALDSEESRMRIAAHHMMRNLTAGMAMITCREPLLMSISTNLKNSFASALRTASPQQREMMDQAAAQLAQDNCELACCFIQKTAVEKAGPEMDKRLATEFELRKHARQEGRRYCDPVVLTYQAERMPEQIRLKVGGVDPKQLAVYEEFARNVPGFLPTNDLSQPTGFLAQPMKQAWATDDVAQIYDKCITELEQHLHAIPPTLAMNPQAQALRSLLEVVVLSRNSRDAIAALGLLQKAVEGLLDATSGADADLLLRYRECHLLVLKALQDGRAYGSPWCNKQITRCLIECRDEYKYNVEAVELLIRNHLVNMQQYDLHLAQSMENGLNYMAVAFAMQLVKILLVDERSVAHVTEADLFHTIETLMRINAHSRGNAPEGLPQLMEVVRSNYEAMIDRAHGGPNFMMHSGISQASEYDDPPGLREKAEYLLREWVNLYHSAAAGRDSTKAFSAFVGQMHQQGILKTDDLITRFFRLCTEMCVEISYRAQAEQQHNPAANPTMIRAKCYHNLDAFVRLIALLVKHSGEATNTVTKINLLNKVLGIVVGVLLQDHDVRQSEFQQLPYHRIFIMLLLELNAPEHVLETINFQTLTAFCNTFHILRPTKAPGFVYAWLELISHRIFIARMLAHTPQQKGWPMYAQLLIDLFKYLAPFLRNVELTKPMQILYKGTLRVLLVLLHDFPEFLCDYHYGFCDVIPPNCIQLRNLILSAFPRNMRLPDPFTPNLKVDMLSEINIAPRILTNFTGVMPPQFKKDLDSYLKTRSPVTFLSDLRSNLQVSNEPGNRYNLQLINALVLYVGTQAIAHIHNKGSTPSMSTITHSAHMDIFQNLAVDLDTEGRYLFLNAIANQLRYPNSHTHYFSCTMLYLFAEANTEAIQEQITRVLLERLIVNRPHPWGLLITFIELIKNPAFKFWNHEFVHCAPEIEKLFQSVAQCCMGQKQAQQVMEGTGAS", "UniProt O75175": "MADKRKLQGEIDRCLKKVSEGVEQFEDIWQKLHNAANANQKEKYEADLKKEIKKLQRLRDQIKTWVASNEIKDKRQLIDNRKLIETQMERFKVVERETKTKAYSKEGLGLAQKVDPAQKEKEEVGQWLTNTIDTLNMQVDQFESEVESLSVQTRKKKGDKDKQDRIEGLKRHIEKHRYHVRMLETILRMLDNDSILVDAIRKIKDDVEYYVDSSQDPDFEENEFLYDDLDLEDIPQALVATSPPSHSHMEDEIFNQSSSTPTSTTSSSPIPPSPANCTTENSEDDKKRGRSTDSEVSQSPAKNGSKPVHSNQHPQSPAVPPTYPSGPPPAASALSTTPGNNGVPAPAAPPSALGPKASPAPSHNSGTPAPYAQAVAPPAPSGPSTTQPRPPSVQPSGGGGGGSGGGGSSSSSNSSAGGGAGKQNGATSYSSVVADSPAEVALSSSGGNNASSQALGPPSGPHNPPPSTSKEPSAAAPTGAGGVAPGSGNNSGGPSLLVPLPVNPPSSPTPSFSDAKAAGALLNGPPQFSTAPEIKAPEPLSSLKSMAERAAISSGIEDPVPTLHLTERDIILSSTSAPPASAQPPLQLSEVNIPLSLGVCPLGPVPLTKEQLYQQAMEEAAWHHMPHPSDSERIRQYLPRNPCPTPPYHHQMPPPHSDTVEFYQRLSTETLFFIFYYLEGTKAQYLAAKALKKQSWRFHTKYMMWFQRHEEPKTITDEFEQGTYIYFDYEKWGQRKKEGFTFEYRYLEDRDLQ", "UniProt Q9UIV1": "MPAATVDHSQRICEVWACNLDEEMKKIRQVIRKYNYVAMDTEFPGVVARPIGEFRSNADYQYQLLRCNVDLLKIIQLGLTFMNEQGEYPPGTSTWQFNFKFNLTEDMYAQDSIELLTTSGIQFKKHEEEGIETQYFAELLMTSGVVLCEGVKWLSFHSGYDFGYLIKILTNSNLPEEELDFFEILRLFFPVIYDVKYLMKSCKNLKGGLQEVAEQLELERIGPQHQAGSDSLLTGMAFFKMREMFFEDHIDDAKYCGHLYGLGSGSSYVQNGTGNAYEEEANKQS", "UniProt Q92600": "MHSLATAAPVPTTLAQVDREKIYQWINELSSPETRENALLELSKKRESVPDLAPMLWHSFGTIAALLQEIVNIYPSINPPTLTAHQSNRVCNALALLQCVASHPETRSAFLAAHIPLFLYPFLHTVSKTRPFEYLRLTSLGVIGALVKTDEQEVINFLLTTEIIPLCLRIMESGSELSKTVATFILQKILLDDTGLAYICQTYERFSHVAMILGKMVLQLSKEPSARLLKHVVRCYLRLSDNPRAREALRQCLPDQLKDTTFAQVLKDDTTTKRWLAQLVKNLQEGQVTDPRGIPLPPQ"},
  "source": "paper PMC3308992",
  "key": {"[1]": {"biological_target": "Flag-tagged NANOS2 with the first 5 amino acids deleted (mouse) (UniProt P60322)", "assay": "co-IP; Flag-tagged NANOS2 or deletion mutants precipitated with anti-FLAG M2 affinity gel from extracts of HeLa cells co-transfected with 3×HA-Cnot6; 50 mM Tris-HCl pH 7.4, 150 mM NaCl, 0.5% NP-40; 3 h at 4°C; western blotting"}, "[2]": {"biological_target": "Flag-tagged NANOS2-ΔN10 (mouse) (UniProt P60322)", "assay": "co-IP; Flag-tagged NANOS2 or deletion mutants precipitated with anti-FLAG M2 affinity gel from extracts of HeLa cells co-transfected with 3×HA-Cnot6; 50 mM Tris-HCl pH 7.4, 150 mM NaCl, 0.5% NP-40; 3 h at 4°C; western blotting"}, "[3]": {"biological_target": "Flag-tagged NANOS2 deletion mutant lacking residues 6–10 (mouse) (UniProt P60322)", "assay": "co-IP; Flag-tagged NANOS2 or deletion mutants precipitated with anti-FLAG M2 affinity gel from extracts of HeLa cells co-transfected with 3×HA-Cnot6; 50 mM Tris-HCl pH 7.4, 150 mM NaCl, 0.5% NP-40; 3 h at 4°C; western blotting"}, "[4]": {"biological_target": "Flag-tagged full length NANOS2 (mouse) (UniProt P60322)", "assay": "co-IP; Flag-tagged NANOS2 or deletion mutants precipitated with anti-FLAG M2 affinity gel from extracts of HeLa cells co-transfected with 3×HA-Cnot6; 50 mM Tris-HCl pH 7.4, 150 mM NaCl, 0.5% NP-40; 3 h at 4°C; western blotting"}, "GST-fused CNOT9 (mouse)": {"biological_target": "GST-fused CNOT9 (mouse) (UniProt Q9JKY0)", "assay": "pull-down; E. coli extracts expressing GST-fused CNOT proteins mixed with 1–5 mg purified MBP fusion, 2 h at 4°C, then glutathione-sepharose 4FF; 25 mM HEPES-KOH pH 7.4, 150 mM NaCl, 0.1% NP-40; washed with binding buffer supplemented with 350 mM NaCl; anti-MBP western blotting; only the binder purified"}, "GST-fused CNOT10 (mouse)": {"biological_target": "GST-fused CNOT10 (mouse) (UniProt Q8BH15)", "assay": "pull-down; E. coli extracts expressing GST-fused CNOT proteins mixed with 1–5 mg purified MBP fusion, 2 h at 4°C, then glutathione-sepharose 4FF; 25 mM HEPES-KOH pH 7.4, 150 mM NaCl, 0.1% NP-40; washed with binding buffer supplemented with 350 mM NaCl; anti-MBP western blotting; only the binder purified"}, "GST-fused CNOT4 (mouse)": {"biological_target": "T1, GST-fused CNOT4 (mouse) (UniProt Q8BT14)", "T1 sequence": "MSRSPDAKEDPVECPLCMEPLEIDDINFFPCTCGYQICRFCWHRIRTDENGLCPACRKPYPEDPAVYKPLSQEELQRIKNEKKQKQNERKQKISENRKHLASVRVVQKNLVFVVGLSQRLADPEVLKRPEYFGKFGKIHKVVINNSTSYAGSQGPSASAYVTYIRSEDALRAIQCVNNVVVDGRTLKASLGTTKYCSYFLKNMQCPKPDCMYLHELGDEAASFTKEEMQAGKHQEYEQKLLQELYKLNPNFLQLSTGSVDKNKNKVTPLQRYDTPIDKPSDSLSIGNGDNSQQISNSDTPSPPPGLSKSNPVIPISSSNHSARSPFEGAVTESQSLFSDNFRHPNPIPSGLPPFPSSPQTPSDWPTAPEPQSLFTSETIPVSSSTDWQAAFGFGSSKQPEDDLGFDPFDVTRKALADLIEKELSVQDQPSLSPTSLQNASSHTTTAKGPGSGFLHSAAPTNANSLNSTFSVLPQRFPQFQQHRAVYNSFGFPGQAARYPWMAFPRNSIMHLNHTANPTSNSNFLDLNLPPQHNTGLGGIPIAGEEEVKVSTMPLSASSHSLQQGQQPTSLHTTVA", "assay": "pull-down; E. coli extracts expressing GST-fused CNOT proteins mixed with 1–5 mg purified MBP fusion, 2 h at 4°C, then glutathione-sepharose 4FF; 25 mM HEPES-KOH pH 7.4, 150 mM NaCl, 0.1% NP-40; washed with binding buffer supplemented with 350 mM NaCl; anti-MBP western blotting; only the binder purified"}, "GST-fused CNOT6L (mouse)": {"biological_target": "GST-fused CNOT6L (mouse) (UniProt Q8VEG6)", "assay": "pull-down; E. coli extracts expressing GST-fused CNOT proteins mixed with 1–5 mg purified MBP fusion, 2 h at 4°C, then glutathione-sepharose 4FF; 25 mM HEPES-KOH pH 7.4, 150 mM NaCl, 0.1% NP-40; washed with binding buffer supplemented with 350 mM NaCl; anti-MBP western blotting; only the binder purified"}, "GST-fused CNOT3 (mouse)": {"biological_target": "GST-fused CNOT3 (mouse) (UniProt Q8K0V4)", "assay": "pull-down; E. coli extracts expressing GST-fused CNOT proteins mixed with 1–5 mg purified MBP fusion, 2 h at 4°C, then glutathione-sepharose 4FF; 25 mM HEPES-KOH pH 7.4, 150 mM NaCl, 0.1% NP-40; washed with binding buffer supplemented with 350 mM NaCl; anti-MBP western blotting; only the binder purified"}, "GST-fused CNOT2 (mouse)": {"biological_target": "GST-fused CNOT2 (mouse) (UniProt Q8C5L3)", "assay": "pull-down; E. coli extracts expressing GST-fused CNOT proteins mixed with 1–5 mg purified MBP fusion, 2 h at 4°C, then glutathione-sepharose 4FF; 25 mM HEPES-KOH pH 7.4, 150 mM NaCl, 0.1% NP-40; washed with binding buffer supplemented with 350 mM NaCl; anti-MBP western blotting; only the binder purified"}, "GST-fused CNOT6 (mouse)": {"biological_target": "GST-fused CNOT6 (mouse) (UniProt Q8K3P5)", "assay": "pull-down; E. coli extracts expressing GST-fused CNOT proteins mixed with 1–5 mg purified MBP fusion, 2 h at 4°C, then glutathione-sepharose 4FF; 25 mM HEPES-KOH pH 7.4, 150 mM NaCl, 0.1% NP-40; washed with binding buffer supplemented with 350 mM NaCl; anti-MBP western blotting; only the binder purified"}},
  "note": "No constants are given. Whether binding was seen depends on the method and setting. Binding seen in cells or lysates may run through a third protein. Some results given as binding are weak or reduced against the parent protein; the word gives no strength. For part of these data: Tags and fused reporters may be left off the sequences shown.",
  "data": [
    {"substance": "CNOT1 (endogenous, HeLa) (from UniProt A5YKK6 1-2376)", "values": [
      {"measurement": "binding", "setting": "[1]", "value": "binds"},
      {"measurement": "binding", "setting": "[2]", "value": "no binding"},
      {"measurement": "binding", "setting": "[3]", "value": "binds weakly"},
      {"measurement": "binding", "setting": "[4]", "value": "binds"}
    ]},
    {"substance": "CNOT3 (endogenous, HeLa) (from UniProt O75175 1-753)", "values": [
      {"measurement": "binding", "setting": "[2]", "value": "no binding"}
    ]},
    {"substance": "CNOT7 (endogenous, HeLa) (from UniProt Q9UIV1 1-285)", "values": [
      {"measurement": "binding", "setting": "[2]", "value": "no binding"}
    ]},
    {"substance": "CNOT9 (endogenous, HeLa) (from UniProt Q92600 1-299)", "values": [
      {"measurement": "binding", "setting": "[2]", "value": "no binding"}
    ]},
    {"substance": "HA-tagged CNOT6 (from UniProt Q8K3P5 1-557)", "values": [
      {"measurement": "binding", "setting": "[2]", "value": "no binding"}
    ]},
    {"substance": "MBP-NANOS2 (from UniProt P60322 1-136)", "values": [
      {"measurement": "binding", "setting": "GST-fused CNOT9 (mouse)", "value": "no binding (tested: 1–5 mg of MBP-NANOS2)"},
      {"measurement": "binding", "setting": "GST-fused CNOT10 (mouse)", "value": "no binding (tested: 1–5 mg of MBP-NANOS2)"},
      {"measurement": "binding", "setting": "GST-fused CNOT4 (mouse)", "value": "no binding (tested: 1–5 mg of MBP-NANOS2)"},
      {"measurement": "binding", "setting": "GST-fused CNOT6L (mouse)", "value": "no binding (tested: 1–5 mg of MBP-NANOS2)"},
      {"measurement": "binding", "setting": "GST-fused CNOT3 (mouse)", "value": "no binding (tested: 1–5 mg of MBP-NANOS2)"},
      {"measurement": "binding", "setting": "GST-fused CNOT2 (mouse)", "value": "no binding (tested: 1–5 mg of MBP-NANOS2)"},
      {"measurement": "binding", "setting": "GST-fused CNOT6 (mouse)", "value": "no binding (tested: 1–5 mg of MBP-NANOS2)"}
    ]}
  ]
}
